This note sets out measurements from PubChem BioAssay (NCI).

The test system of test [1] is DU-145 prostate. Put plainly: NCI-60 one-dose screen, 48 h (100 = growth as untreated, 0 = no growth, -100 = all killed).
For test [2], the system named is MDA-MB-231 breast. The test is described as above. As to conditions: 0.25 µM.

Some structures have more than one record in an assay (separate samples or runs), and their calls can disagree.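 Interpretation: 100, growth as untreated; towards 0, rising growth inhibition; 0, no net growth; 0 to -100, cell death. Compounds scoring below 10 were considered active.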 A number of entries come with more than one value. The list is limited to them. The source may hold further records. This drug was run again and again over the years, at its own concentration, as given; each value is one run. Signs of the kind (2×) say how often a value occurs here.

Regarding `COc1cccc2c1C(=O)c1c(O)c3c(c(O)c1C2=O)C[C@@](O)(C(=O)CO)C[C@@H]3OC1CC(N)C(O)C(C)O1` (stereo not given in full), the growth entry in test [1] (0.25 µM, runs of 2021) is “inactive: 25.7, 38.1, 27.4 (2×), 38, 32.4 (2×), 30.6, 26.4, 26.2 (2×), 25.5, 27.2 (2×), 21.3, 24.1 (2×), 25.1, 21.4, 15.7, 15.6, 21.6 (2×), 20.8, 31, 22.5, 26.1, 17.6 (2×), 18.1, 25, 27.7, 31.6, 31.2, 20.4, 37.4, 22.6, 24.4, 20, 22.8 (2×), 29.9, 26.8, 18.3 (2×), 29.3, 16.6%”; in test [1] (0.25 µM, runs of 2022), “inactive: 20.5, 25.6, 11, 11.2, 23.3, 15.6, 18.8, 20.8, 21.6, 19.3, 30.7, 39.8, 25.7, 21.9, 66.1, 78.7, 23.9, 74.4, 53.5, 86.1, 25, 22.6, 26.7, 28, 28.6% and active: 8.15%”; in test [1] (25 µM, runs of 1993), “active: 2.5, 8.54, 2.66, 1.57, 3.88, -11.7, 6.56, 5.73, 4.99, -17.2 (2×), -30.8, -7.18, 5.26, -0.867, 7.33, -35.5 (2×), 1.85, 2.8, -26.2, -18.1, 7.96, -9.71, -2.81, -31.9, -29, -27.5, 8.47, -13.2, 4.88, -20.1, -18.3, 1.27, -28.7 (2×), 5.42, -0.453, 1.8, 1.3, -13.6, -30.6, -8.66% and inactive: 11.7, 12, 10.9, 14%”; in test [1] (25 µM, runs of 1994), “inactive: 18.3, 99.4, 11.1, 15.7, 10.5 (2×), 103, 13.4, 21.6, 10.4, 15.5% and active: -3.37, -3.58, -26.5, 6.15, -5.04, 1.03, 6.43, -19.2, 8.65, 1.28, 8.73, -2.83, -18.9, -22.4, -7.04, -4.16, 9.28, -5.69, -1.17, -6.41, 6.13, -2.55, 8.72, 3.96%”; in test [1] (25 µM, runs of 1995), “active: 3.08, -8.48, -23.4, -1.75, -47.5, -7.26, -7.82, -6.3, 5.74, -3.69, 4, 6.9, -0.956, -59.6, 0.126, 3.02, -18.2, -19.4, -7.66, -12.2, 4.97, -9.92, -2.45, 3.52, -23.8, -13.2, 1.02, 9.25, 5.32, 0.313, -0.928, -34.6% and inactive: 13.4, 10.1, 13.2, 10.9, 15%”; in test [1] (25 µM, runs of 1996), “active: -15.7, 2.96, -16.8, -24.2, -25.6, 2.31, 1.77, 2.91, -12.1, -37.5, -7.48, 1.76 (2×), -2.91, -13.3, 2.85, 8.33, -19.4, -23.5, 0.275, -6.01, 3.71, 0.36, -9.05, -26.8, -2.78, 3.67, -27.7, -6.59, -14.3, -5.63, -23.8, -47.3, -17.9, 4.52, 5.5, 4.89, -15.4, -8.43, 3.1, -28.6, -42.3% and inactive: 11.5, 13.8, 15.1 (2×), 20.7, 36.9, 17.6, 18.3, 18, 12.3, 13.2%”. Besides, the growth result in test [1] (25 µM, runs of 1997) is “active: -24.3, -2.61, -12.3, 7.21, -29.6, -12.4, -11.7, 2.14, 5.61, 6.34, -24.9, 6.85, -1.08, -16.9, -16.5, 4.99, -11.1, -10.6, -11, -33.2, -8.04, 0.0595, 1.39, 1.36, -3.29, 1.19, -18.1, 5.38, 4.94, -6.69, -14.4, -11.9, -8.93% and inactive: 14.3, 10.8, 20.5, 27.1, 12.6, 12, 15.7, 13.6, 22.1%”; in test [1] (25 µM, runs of 1998), “active: -23.4, 4.44, 2.25, 0.163, -0.388, -8.68, -6.93, 4.98, -35.9, -3.43, 7.59, 7.67, 7.01, 7.91, -20.6, -2.23, 1.97, -12.5, 4.41, 9.76, -45, -22.6% and inactive: 10.3%”; in test [1] (25 µM, runs of 1999) it was “active: -25.5, 6.37, -8.24, 2.63, -55.4, -27, -55.5, -40.3, -54.9, -42.9, 6.32, 1.72, -44.7, -100, -45.9, -63.7% and inactive: 11.2%”; in test [1] (25 µM, runs of 2000), “active: 0.253, -100, -48.1, -39.5%”; in test [2] (runs of 2006) it was “inactive: 71.6%, 76.5%”; in test [2] (runs of 2007), “inactive: 69.7, 79.3, 76.8, 73.7, 86.5, 78.9, 76.6, 92.8, 84.6, 78, 78.2, 61.8, 60.5, 27.4, 26.1, 52.5, 87.2, 92.9, 76.1, 105, 96.9, 95.8, 93.7 (2×), 94, 106, 98.1, 84.3, 83.4, 76.9, 27.8, 95.5, 87.5, 87.4, 74.8, 82.7, 74.7, 97.3, 87.6, 88.6, 103%”. The growth entry was “inactive: 80.5, 86.5, 73.9, 71.6, 86.4, 80.8, 73.5 (2×), 77.1, 87.9, 83.8, 91.9, 100 (2×), 96.2, 59.3, 67, 63.4, 69.9, 65.4, 67.3, 53, 60, 57.4, 58.2, 60.4, 97.9, 69.8, 94.1, 94.7, 72.5, 66, 48.6, 66.6, 47, 72, 74, 45.3, 61.7, 73.6, 87.7, 66.2, 81.2, 84.2, 68.4, 70.4, 79.5, 69.6, 89.1, 78.7, 64.2, 82.4%” in test [2] (runs of 2008); “inactive: 63.1, 68.7, 68.9 (2×), 59.7, 71.6, 73.4, 86, 92.4, 74.6 (3×), 79.4, 84.1, 80.1 (2×), 83.3, 80.2, 71.9, 79.9, 72.7, 79.6 (2×), 80.4, 85.2, 61.3, 71.7, 76.9, 74.2 (2×), 66.1, 67, 73.3, 78.8, 83.5, 99.2, 86.6, 70.5, 89.7, 78.5, 97, 85.7, 54.5, 59.4, 69.6, 76.7, 75 (2×), 80.7, 82.3, 67.8, 70.7, 65, 71.2, 76.1, 56.6, 91.1, 105, 76, 78.1, 97.6, 82.4, 73.6, 91.6, 92.6, 76.4, 87.2, 83.8, 78.3%” in test [2] (runs of 2009); “inactive: 77.7, 79.5, 87.2, 72.4 (2×), 63.3, 76.6 (2×), 74, 92.5, 98.6, 80.1 (2×), 87.8, 96.4, 86.7, 76.8, 88.3, 80.3, 74.6, 78.9, 71.3, 75.8, 78.4, 57.1, 76.5 (2×), 79.2 (2×), 60.9, 81.8, 83.5, 81.4, 94.7, 75.7, 79.7, 80.2, 89.2, 80, 94.5, 80.6, 86 (2×), 91, 90.2, 96.2, 90.1, 97, 104, 85.6, 85.3, 93.2%” in test [2] (runs of 2010).
